# This is one part of the list.
# What was measured:
# Assay in all cases: glycan array binding signal (z-score within array); higher = stronger binding
# Settings in all cases: glycan notation: IUPAC condensed, linker removed
# [1] = target: Glc(b1-3)Glc(b1-3)Glc
# How it was run: (§1)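 Columns mapping to the same glycan were averaged after glycan names were converted to IUPAC-condensed notation. The data come from 3228 arrays in the Consortium for Functional Glycomics database, limited to those with an available protein sequence. Binding is reported as a within-array Z-score averaged across arrays of one protein sequence and across linkers.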
# [2] = target: Glc(b1-3)Glc(b1-3)Glc(b1-3)Glc
# How it was run: as §1
# [3] = target: Glc(b1-3)Glc(b1-3)Glc(b1-3)Glc(b1-3)Glc
# How it was run: as §1
# [4] = target: Glc(b1-3)Glc(b1-3)Glc(b1-3)Glc(b1-3)Glc(b1-3)Glc
# How it was run: as §1
# [5] = target: Glc(b1-3)Glc(b1-3)Glc(b1-3)Glc(b1-3)Glc(b1-3)Glc(b1-3)Glc
# How it was run: as §1
# [6] = target: Glc(b1-3)Glc(b1-3)Glc(b1-3)Glc(b1-3)Glc(b1-3)Glc(b1-3)Glc(b1-3)Glc
# How it was run: as §1
# [7] = target: Glc(b1-3)Glc(b1-3)Glc(b1-3)Glc(b1-3)Glc(b1-3)Glc(b1-3)Glc(b1-3)Glc(b1-3)Glc
# How it was run: as §1
# [8] = target: Glc(b1-3)Glc(b1-3)Glc(b1-3)Glc(b1-3)Glc(b1-3)Glc(b1-3)Glc(b1-3)Glc(b1-3)Glc(b1-3)Glc
# How it was run: as §1
# [9] = target: Glc(b1-3)Glc(b1-3)Glc(b1-3)Glc(b1-3)Glc(b1-3)Glc(b1-3)Glc(b1-3)Glc(b1-3)Glc(b1-3)Glc(b1-3)Glc
# How it was run: as §1
# [10] = target: Glc(b1-3)Glc(b1-3)Glc(b1-3)Glc(b1-3)Glc(b1-3)Glc(b1-3)Glc(b1-3)Glc(b1-3)Glc(b1-3)Glc(b1-3)Glc(b1-3)Glc
# How it was run: as §1
# [11] = target: Glc(b1-3)Glc(b1-3)Glc(b1-3)Glc(b1-3)Glc(b1-3)Glc(b1-3)Glc(b1-3)Glc(b1-3)Glc(b1-3)Glc(b1-3)Glc(b1-3)Glc(b1-3)Glc
# How it was run: as §1
# [12] = target: Glc(b1-4)Glc
# How it was run: as §1
# [13] = target: Glc(b1-4)Glc(b1-4)Glc
# How it was run: as §1
# [14] = target: Glc(b1-4)Glc(b1-4)Glc(b1-4)Glc
# How it was run: as §1
# [15] = target: Glc(b1-4)Glc(b1-4)Glc(b1-4)Glc(b1-4)Glc
# How it was run: as §1
# [16] = target: Glc(b1-4)Glc(b1-4)Glc(b1-4)Glc(b1-4)Glc(b1-4)Glc
# How it was run: as §1
# [17] = target: Glc(b1-4)Glc(b1-4)Glc(b1-4)Glc(b1-4)Glc(b1-4)Glc(b1-4)Glc(b1-4)Glc
# How it was run: as §1
# [18] = target: Glc(b1-4)Glc(b1-4)Glc(b1-4)Glc(b1-4)Glc(b1-4)Glc(b1-4)Glc(b1-4)Glc(b1-4)Glc
# How it was run: as §1
# [19] = target: Glc(b1-4)Glc(b1-4)Glc(b1-4)Glc(b1-4)Glc(b1-4)Glc(b1-4)Glc(b1-4)Glc(b1-4)Glc(b1-4)Glc
# How it was run: as §1
# [20] = target: Glc(b1-4)Glc(b1-4)Glc(b1-4)Glc(b1-4)Glc(b1-4)Glc(b1-4)Glc(b1-4)Glc(b1-4)Glc(b1-4)Glc(b1-4)Glc
# How it was run: as §1
# [21] = target: Glc(b1-4)Glc(b1-4)Glc(b1-4)Glc(b1-4)Glc(b1-4)Glc(b1-4)Glc(b1-4)Glc(b1-4)Glc(b1-4)Glc(b1-4)Glc(b1-4)Glc
# How it was run: as §1
# [22] = target: Glc(b1-4)Glc(b1-4)Glc(b1-4)Glc(b1-4)Glc(b1-4)Glc(b1-4)Glc(b1-4)Glc(b1-4)Glc(b1-4)Glc(b1-4)Glc(b1-4)Glc(b1-4)Glc
# How it was run: as §1
# [23] = target: Glc(b1-6)Glc
# How it was run: as §1
# [24] = target: Glc(b1-6)Glc(b1-6)Glc
# How it was run: as §1
# [25] = target: Glc(b1-6)Glc(b1-6)Glc(b1-6)Glc
# How it was run: as §1
# [26] = target: Glc(b1-6)Glc(b1-6)Glc(b1-6)Glc(b1-6)Glc
# How it was run: as §1
# [27] = target: Glc(b1-6)Glc(b1-6)Glc(b1-6)Glc(b1-6)Glc(b1-6)Glc
# How it was run: as §1
# [28] = target: Glc(b1-6)Glc(b1-6)Glc(b1-6)Glc(b1-6)Glc(b1-6)Glc(b1-6)Glc
# How it was run: as §1
# [29] = target: Glc(b1-6)Glc(b1-6)Glc(b1-6)Glc(b1-6)Glc(b1-6)Glc(b1-6)Glc(b1-6)Glc
# How it was run: as §1
# [30] = target: Glc(b1-6)Glc(b1-6)Glc(b1-6)Glc(b1-6)Glc(b1-6)Glc(b1-6)Glc(b1-6)Glc(b1-6)Glc
# How it was run: as §1
# [31] = target: GlcA(b1-3)Gal
# How it was run: as §1
# [32] = target: GlcA(b1-3)Gal(b1-3)GlcNAc
# How it was run: as §1
# [33] = target: GlcA(b1-3)Gal(b1-4)Glc
# How it was run: as §1
# [34] = target: GlcA(b1-3)Gal(b1-4)GlcNAc(b1-3)Gal(b1-4)Glc
# How it was run: as §1
# [35] = target: GlcA(b1-3)Gal(b1-4)GlcNAc(b1-3)Gal(b1-4)GlcNAc(b1-3)Gal(b1-4)Glc
# How it was run: as §1
# [36] = target: GlcA(b1-3)GlcNAc(b1-4)GlcA(b1-3)GlcNAc
# How it was run: as §1
# [37] = target: GlcA(b1-3)GlcNAc(b1-4)GlcA(b1-3)GlcNAc(b1-4)GlcA(b1-3)GlcNAc(b1-4)GlcA(b1-3)GlcNAc(b1-4)GlcA(b1-3)GlcNAc(b1-4)GlcA(b1-3)GlcNAc(b1-4)GlcA(b1-3)GlcNAc
# How it was run: as §1
# [38] = target: GlcA(b1-3)GlcNAc(b1-4)GlcA(b1-3)GlcNAc(b1-4)GlcA(b1-3)GlcNAc(b1-4)GlcA(b1-3)GlcNAc(b1-4)GlcA(b1-3)GlcNAc(b1-4)GlcA(b1-3)GlcNAc(b1-4)GlcA(b1-3)GlcNAc(b1-4)GlcA(b1-3)GlcNAc
# How it was run: as §1
# [39] = target: GlcA(b1-4)GlcNAc(a1-4)GlcA(b1-4)2,5-Anhydro-Man
# How it was run: as §1
# [40] = target: GlcA(b1-4)GlcNAc(a1-4)GlcA(b1-4)GlcNAc(a1-4)GlcA(b1-4)GlcNAc(a1-4)GlcA(b1-4)2,5-Anhydro-Man
# How it was run: as §1
# [41] = target: GlcA3S(b1-3)Gal
# How it was run: as §1
# [42] = target: GlcA3S(b1-3)Gal(b1-4)Glc
# How it was run: as §1
# [43] = target: GlcA3S(b1-3)Gal(b1-4)GlcNAc(b1-3)Gal(b1-4)Glc
# How it was run: as §1
# [44] = target: GlcA3S(b1-3)Gal(b1-4)GlcNAc(b1-3)Gal(b1-4)GlcNAc(b1-3)Gal(b1-4)Glc
# How it was run: as §1
# [45] = target: GlcNAc(a1-4)Gal
# How it was run: as §1
binder,measurement,setting,value
"ZG16p (Homo sapiens), O60844 (protein) ARSSSYSGEYGGGGGKRFSHSGNQLDGPITALRVRVNTYYIVGLQVRYGKVWSDYVGGRNGDLEEIFLHPGESVIQVSGKYKWYLKKLLFVTDKGRYLSFGKDSGTSFNAVPLHPNTVLRFISGRSGSLIDAIGLHWDVYPSSCSRC",glycan array binding signal (z-score),[1],0.455
same,glycan array binding signal (z-score),[2],0.797
same,glycan array binding signal (z-score),[3],0.602
same,glycan array binding signal (z-score),[4],1.25
same,glycan array binding signal (z-score),[5],-0.027
same,glycan array binding signal (z-score),[6],0.02
same,glycan array binding signal (z-score),[7],0.089
same,glycan array binding signal (z-score),[8],-0.076
same,glycan array binding signal (z-score),[9],0.028
same,glycan array binding signal (z-score),[10],0.262
same,glycan array binding signal (z-score),[11],-0.12
same,glycan array binding signal (z-score),[12],0.043
same,glycan array binding signal (z-score),[13],-0.054
same,glycan array binding signal (z-score),[14],-0.149
same,glycan array binding signal (z-score),[15],-0.328
same,glycan array binding signal (z-score),[16],0.102
same,glycan array binding signal (z-score),[17],-0.028
same,glycan array binding signal (z-score),[18],0.1
same,glycan array binding signal (z-score),[19],-0.322
same,glycan array binding signal (z-score),[20],-0.187
same,glycan array binding signal (z-score),[21],-0.171
same,glycan array binding signal (z-score),[22],-0.259
same,glycan array binding signal (z-score),[23],2.7
same,glycan array binding signal (z-score),[24],0.72
same,glycan array binding signal (z-score),[25],0.263
same,glycan array binding signal (z-score),[26],0.205
same,glycan array binding signal (z-score),[27],-0.164
same,glycan array binding signal (z-score),[28],-0.016
same,glycan array binding signal (z-score),[29],0.051
same,glycan array binding signal (z-score),[30],0.274
same,glycan array binding signal (z-score),[31],-0.328
same,glycan array binding signal (z-score),[32],-0.328
same,glycan array binding signal (z-score),[33],-0.328
same,glycan array binding signal (z-score),[34],-0.328
same,glycan array binding signal (z-score),[35],-0.328
same,glycan array binding signal (z-score),[36],-0.328
same,glycan array binding signal (z-score),[37],-0.328
same,glycan array binding signal (z-score),[38],-0.512
same,glycan array binding signal (z-score),[39],-0.25
same,glycan array binding signal (z-score),[40],-0.228
same,glycan array binding signal (z-score),[41],-0.328
same,glycan array binding signal (z-score),[42],-0.16
same,glycan array binding signal (z-score),[43],-0.327
same,glycan array binding signal (z-score),[44],-0.299
same,glycan array binding signal (z-score),[45],0.222
